# Source: PMC4564177
# The chains behind the UniProt entries cited, without tags or fusion partners. Where a name states a change or a piece, a line headed by the entry shows the natural chain unless it says otherwise. A line that says so, or that is headed by a name, gives the form on record, which may keep a tag or linker. Residues count along the entry.
# UniProt O88382: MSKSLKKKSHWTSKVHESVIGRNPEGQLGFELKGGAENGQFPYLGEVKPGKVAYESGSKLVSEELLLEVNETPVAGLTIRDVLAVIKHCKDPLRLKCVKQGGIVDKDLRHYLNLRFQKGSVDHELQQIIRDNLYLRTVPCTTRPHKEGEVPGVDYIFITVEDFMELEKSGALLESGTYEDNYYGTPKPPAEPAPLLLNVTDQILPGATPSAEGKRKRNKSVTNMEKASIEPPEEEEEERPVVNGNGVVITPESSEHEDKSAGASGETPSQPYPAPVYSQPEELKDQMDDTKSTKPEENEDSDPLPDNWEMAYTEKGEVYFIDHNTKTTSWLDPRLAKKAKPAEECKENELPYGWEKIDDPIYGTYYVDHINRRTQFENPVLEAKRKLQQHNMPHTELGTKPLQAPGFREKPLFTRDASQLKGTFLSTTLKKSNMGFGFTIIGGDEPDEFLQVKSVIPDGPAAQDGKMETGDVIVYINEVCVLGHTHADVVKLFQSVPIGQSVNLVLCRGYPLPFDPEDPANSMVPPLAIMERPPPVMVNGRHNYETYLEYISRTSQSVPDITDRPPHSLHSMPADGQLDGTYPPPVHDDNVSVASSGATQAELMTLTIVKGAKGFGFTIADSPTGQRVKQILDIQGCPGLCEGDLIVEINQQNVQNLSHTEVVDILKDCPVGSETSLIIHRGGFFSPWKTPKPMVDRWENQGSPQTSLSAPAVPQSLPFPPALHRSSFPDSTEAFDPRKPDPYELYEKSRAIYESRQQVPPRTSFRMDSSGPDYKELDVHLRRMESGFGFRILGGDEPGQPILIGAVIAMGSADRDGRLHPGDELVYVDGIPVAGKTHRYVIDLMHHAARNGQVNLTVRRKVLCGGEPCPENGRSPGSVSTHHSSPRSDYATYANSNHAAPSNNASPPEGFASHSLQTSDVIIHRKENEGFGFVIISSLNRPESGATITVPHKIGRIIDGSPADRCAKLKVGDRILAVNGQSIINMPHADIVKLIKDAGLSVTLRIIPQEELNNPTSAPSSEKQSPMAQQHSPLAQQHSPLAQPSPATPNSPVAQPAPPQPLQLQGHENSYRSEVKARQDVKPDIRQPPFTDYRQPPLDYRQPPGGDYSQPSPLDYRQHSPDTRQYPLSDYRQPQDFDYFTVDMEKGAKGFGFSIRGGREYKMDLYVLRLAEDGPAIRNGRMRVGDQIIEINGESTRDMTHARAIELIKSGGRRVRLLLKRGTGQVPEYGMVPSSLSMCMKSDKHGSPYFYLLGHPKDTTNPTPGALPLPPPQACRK
# UniProt O00560: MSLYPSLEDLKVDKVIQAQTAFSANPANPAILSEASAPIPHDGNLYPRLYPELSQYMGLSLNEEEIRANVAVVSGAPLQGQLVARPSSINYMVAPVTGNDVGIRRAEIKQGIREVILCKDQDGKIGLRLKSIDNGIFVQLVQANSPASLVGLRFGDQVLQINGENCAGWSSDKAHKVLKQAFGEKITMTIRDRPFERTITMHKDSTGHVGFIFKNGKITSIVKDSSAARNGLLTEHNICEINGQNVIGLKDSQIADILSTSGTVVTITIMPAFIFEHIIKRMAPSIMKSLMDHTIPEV
# UniProt Q62696: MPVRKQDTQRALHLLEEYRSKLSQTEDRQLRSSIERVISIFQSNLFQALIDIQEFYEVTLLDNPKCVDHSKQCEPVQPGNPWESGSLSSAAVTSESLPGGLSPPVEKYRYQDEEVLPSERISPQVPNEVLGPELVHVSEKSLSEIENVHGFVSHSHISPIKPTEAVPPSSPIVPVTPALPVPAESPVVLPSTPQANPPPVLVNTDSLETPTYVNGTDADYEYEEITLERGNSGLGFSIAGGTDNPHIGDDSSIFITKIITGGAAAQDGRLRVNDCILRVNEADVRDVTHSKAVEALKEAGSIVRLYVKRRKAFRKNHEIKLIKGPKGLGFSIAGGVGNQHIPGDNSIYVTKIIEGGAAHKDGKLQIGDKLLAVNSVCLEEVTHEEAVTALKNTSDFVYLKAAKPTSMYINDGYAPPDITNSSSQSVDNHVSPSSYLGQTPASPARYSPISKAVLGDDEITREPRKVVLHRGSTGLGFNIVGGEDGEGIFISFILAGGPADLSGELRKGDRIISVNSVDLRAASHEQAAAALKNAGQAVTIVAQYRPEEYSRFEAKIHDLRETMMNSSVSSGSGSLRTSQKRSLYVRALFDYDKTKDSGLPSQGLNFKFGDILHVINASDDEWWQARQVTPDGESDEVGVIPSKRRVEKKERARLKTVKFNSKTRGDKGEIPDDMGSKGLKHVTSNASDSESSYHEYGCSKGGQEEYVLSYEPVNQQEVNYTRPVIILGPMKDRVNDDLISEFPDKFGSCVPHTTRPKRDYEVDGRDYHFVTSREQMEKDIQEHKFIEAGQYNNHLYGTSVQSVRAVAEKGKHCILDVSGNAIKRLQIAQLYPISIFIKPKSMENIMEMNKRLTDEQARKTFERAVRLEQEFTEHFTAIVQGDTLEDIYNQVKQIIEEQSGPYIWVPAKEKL
# flag-CRHR1 (P34998, residues 24-415): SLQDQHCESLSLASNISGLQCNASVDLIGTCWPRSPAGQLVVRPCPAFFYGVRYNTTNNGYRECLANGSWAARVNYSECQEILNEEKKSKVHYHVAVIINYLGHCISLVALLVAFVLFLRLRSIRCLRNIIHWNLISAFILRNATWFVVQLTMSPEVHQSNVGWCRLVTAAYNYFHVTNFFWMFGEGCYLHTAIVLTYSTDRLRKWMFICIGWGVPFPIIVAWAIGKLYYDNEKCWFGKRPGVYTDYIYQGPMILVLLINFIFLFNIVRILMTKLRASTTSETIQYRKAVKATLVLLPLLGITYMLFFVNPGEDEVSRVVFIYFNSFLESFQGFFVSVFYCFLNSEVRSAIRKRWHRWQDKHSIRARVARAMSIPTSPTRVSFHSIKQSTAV
# flag-CRHR1-STAVA (P34998-2, form named): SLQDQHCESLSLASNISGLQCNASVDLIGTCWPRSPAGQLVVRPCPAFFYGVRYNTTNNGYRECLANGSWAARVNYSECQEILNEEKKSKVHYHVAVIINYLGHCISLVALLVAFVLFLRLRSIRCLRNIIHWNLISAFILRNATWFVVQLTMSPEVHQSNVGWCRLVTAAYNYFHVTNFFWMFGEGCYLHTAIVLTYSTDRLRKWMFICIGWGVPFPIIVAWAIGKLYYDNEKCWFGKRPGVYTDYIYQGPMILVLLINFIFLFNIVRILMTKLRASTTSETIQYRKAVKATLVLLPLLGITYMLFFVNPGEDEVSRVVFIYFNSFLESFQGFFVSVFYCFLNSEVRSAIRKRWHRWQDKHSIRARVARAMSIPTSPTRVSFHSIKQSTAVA
# myc-GFP-CRHR1 (P35347, residues 24-415): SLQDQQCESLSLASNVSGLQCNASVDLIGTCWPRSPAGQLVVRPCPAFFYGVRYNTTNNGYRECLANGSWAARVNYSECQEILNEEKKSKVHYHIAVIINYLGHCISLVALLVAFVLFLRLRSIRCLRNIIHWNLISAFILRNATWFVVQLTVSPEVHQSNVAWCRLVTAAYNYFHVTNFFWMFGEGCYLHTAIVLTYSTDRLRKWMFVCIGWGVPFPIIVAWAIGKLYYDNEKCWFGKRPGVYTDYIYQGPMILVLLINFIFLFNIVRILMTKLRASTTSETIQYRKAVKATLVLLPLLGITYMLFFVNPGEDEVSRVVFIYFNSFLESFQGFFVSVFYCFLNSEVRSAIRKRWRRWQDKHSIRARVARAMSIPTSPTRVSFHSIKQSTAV
# myc-GFP-CRHR1-STAVA (P35347, form named): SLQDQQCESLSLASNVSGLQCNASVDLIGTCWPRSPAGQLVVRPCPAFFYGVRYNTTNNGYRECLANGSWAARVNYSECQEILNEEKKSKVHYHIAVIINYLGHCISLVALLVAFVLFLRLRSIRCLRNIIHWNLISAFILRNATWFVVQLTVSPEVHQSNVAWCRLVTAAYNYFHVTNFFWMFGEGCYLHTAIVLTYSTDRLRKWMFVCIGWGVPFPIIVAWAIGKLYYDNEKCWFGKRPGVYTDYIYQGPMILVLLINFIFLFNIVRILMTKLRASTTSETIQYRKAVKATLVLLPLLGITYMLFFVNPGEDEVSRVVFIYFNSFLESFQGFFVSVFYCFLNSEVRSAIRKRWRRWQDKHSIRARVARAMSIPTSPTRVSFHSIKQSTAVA
# These are yes or no findings as the source states them, for the method shown. Binding seen in cells or lysates may run through a third protein. Some results given as binding are weak or reduced against the parent protein; the word gives no strength. For part of these data: Where a sequence is shown, tags or fusion partners need not be part of it.
# Tests used:
# Experiment in all cases: co-IP; lysates of HEK293 cells transiently co-transfected; IP overnight at 4°C with anti-GFP, anti-myc, anti-HA or anti-flag and Protein G Dynabeads; washes with 500 mM NaCl, 0.1% SDS, 0.5% Triton X-100; immunoblot; for syntenin-1 under basal conditions and after CRH (100 nM) treatment
# myc-MAGI2 (rat) = myc-MAGI2 (rat) (UniProt O88382)
# syntenin-1-myc = syntenin-1-myc (UniProt O00560)
# HA-SAP97 (rat) = HA-SAP97 (rat) (UniProt Q62696)
# flag-SAP102 (mouse) = target: T1, flag-SAP102 (mouse) (UniProt P70175)
# T1 sequence: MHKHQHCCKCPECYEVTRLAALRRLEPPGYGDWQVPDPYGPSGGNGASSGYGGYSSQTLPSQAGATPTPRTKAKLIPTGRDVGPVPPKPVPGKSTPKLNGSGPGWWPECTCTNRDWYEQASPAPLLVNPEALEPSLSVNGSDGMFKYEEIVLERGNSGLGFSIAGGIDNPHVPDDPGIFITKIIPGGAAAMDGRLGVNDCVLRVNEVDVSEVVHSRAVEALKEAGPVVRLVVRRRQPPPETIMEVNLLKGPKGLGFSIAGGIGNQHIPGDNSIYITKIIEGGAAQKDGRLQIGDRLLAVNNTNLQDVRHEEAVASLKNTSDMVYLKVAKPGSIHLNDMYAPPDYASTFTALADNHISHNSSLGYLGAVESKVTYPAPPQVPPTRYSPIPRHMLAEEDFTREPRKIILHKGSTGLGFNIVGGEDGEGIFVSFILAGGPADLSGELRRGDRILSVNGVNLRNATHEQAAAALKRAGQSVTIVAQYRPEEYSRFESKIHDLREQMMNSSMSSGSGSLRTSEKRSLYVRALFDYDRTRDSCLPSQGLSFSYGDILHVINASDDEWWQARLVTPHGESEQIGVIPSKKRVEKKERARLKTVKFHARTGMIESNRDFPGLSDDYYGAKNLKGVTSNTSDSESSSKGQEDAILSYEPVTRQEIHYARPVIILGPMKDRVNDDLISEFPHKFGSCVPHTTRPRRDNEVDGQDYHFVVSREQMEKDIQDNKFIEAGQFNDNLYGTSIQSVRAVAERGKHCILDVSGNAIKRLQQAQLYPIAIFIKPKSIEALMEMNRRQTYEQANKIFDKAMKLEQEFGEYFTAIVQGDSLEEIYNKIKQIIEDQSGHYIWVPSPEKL
# flag-CRHR1 (human) = flag-CRHR1 (human) (UniProt P34998)
# flag-CRHR1-STAVA (human) = flag-CRHR1-STAVA (human) (UniProt P34998)
# myc-GFP-CRHR1 (mouse) = myc-GFP-CRHR1 (mouse) (UniProt P35347)
# [1] = target: myc-GFP-CRHR1-STAVA (mouse) (UniProt P35347)
substance,measurement,setting,value
flag-CRHR1-STAVA (from UniProt P34998-2 24-415) (receptor),binding,myc-MAGI2 (rat),no binding
flag-CRHR1 (from UniProt P34998-2 24-415) (receptor),binding,syntenin-1-myc,no binding
same,binding,myc-MAGI2 (rat),binds
myc-GFP-CRHR1-STAVA (from UniProt P35347 24-415) (receptor),binding,HA-SAP97 (rat),no binding
same,binding,flag-SAP102 (mouse),no binding
syntenin-1-myc (from UniProt O00560 1-298),binding,flag-CRHR1 (human),no binding
myc-MAGI2 (from UniProt O88382 1-1277),binding,flag-CRHR1 (human),binds
same,binding,flag-CRHR1-STAVA (human),no binding
HA-SAP97 (from UniProt Q62696 1-911),binding,myc-GFP-CRHR1 (mouse),binds
same,binding,[1],no binding
myc-GFP-CRHR1 (from UniProt P35347 24-415) (receptor),binding,HA-SAP97 (rat),binds
same,binding,flag-SAP102 (mouse),binds
